{"source": "the supplement of paper PMC6531468", "assay_in_all_cases": "6-mer SELEX enrichment z-score vs GST control; IMP3 is the RNA-binding protein IGF2BP3; higher = more enriched by binding", "key": {"[1]": {"test_system": "IMP3 KH1-4", "sequence (chain, as listed by the source)": "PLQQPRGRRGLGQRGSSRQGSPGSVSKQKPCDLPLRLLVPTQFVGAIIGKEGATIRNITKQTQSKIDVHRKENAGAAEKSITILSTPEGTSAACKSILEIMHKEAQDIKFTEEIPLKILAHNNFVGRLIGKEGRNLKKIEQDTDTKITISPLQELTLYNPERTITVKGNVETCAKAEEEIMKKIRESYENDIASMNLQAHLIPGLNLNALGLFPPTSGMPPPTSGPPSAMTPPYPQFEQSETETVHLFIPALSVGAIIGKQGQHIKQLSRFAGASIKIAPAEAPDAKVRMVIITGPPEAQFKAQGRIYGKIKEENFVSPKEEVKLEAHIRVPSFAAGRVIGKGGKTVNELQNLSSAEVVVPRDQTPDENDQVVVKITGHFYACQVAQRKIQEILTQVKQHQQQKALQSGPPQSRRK", "conditions": "construct: KH1-4 (164-579); SELEX round: R4", "protocol": "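SELEX-seq with GST-tagged IMP3 KH1-4 (Pro164-Lys579) and an N40 RNA pool, round 4. 6-mer z-score of sequence-tag enrichment normalised to the corresponding GST SELEX round; RNA k-mers written as DNA (T for U).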"}, "[2]": {"test_system": "IMP3 RRM1-2", "sequence (chain, as listed by the source)": "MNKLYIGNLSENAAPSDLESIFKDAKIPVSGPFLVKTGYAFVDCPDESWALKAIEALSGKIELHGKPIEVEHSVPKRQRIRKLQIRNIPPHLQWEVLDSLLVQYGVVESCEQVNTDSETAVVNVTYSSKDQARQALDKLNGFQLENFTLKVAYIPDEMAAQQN", "conditions": "construct: RRM1-2 (1-163); SELEX round: R2", "protocol": "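SELEX-seq with GST-tagged IMP3 RRM1-2 (Met1-Asn163) and an N40 RNA pool, round 2. 6-mer enrichment z-score normalised to GST SELEX. RNA written as DNA (T = U).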"}, "[3]": {"target": "IMP3 full-length (UniProt O00425)", "sequence (O00425 whole entry)": "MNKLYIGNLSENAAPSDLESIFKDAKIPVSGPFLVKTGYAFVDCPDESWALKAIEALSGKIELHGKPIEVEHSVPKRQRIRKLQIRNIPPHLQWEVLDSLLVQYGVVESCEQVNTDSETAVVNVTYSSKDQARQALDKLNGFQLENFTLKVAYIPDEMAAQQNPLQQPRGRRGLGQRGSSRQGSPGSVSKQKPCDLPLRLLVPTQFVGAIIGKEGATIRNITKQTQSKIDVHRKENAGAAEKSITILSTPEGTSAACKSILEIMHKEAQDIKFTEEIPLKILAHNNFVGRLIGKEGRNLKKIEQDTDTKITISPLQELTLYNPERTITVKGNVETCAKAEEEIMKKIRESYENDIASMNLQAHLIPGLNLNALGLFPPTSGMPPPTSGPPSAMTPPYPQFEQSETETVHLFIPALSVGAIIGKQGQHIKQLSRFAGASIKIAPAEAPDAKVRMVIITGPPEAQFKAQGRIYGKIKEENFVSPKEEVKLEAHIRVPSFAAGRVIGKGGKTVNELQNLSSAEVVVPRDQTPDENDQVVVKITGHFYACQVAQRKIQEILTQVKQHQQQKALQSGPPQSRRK", "conditions": "construct: FL IMP3 (1-579); SELEX round: R4", "protocol": "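SELEX-seq with GST-tagged full-length IMP3 and an N40 RNA pool, round 4. Each 6-mer is scored as an enrichment z-score of sequence tags containing it, normalised to the matching GST SELEX round. RNA written as DNA (T = U).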"}, "[4]": {"test_system": "IMP3 KH3-4", "sequence (chain, as listed by the source)": "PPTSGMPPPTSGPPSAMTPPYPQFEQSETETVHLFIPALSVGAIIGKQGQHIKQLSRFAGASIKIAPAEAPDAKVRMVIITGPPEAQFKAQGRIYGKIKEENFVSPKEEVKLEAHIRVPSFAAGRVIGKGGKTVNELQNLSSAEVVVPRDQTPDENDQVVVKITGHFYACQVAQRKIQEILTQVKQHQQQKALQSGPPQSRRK", "conditions": "construct: KH3-4 (377-579); SELEX round: R4", "protocol": "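SELEX-seq with GST-tagged IMP3 KH3-4 (Pro377-Lys579) and an N40 RNA pool, round 4. 6-mer z-score of sequence-tag enrichment normalised to the corresponding GST SELEX round; RNA k-mers written as DNA (T for U).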"}}, "note": "This is one part of the list. Values come from read counts of a selection and are noisy. Scores sum up all selected molecules that hold the word; the word was not tested alone.", "data": [{"sequence": "CGAGTA", "values": [{"measurement": "6-mer SELEX enrichment z-score", "setting": "[1]", "result": -1.26}, {"measurement": "6-mer SELEX enrichment z-score", "setting": "[2]", "result": -0.12}, {"measurement": "6-mer SELEX enrichment z-score", "setting": "[3]", "result": -0.589}, {"measurement": "6-mer SELEX enrichment z-score", "setting": "[4]", "result": -0.98}]}, {"sequence": "CTTTTT", "values": [{"measurement": "6-mer SELEX enrichment z-score", "setting": "[1]", "result": 0.823}, {"measurement": "6-mer SELEX enrichment z-score", "setting": "[2]", "result": 0.386}, {"measurement": "6-mer SELEX enrichment z-score", "setting": "[3]", "result": 0.223}, {"measurement": "6-mer SELEX enrichment z-score", "setting": "[4]", "result": 1.06}]}, {"sequence": "CCTCCT", "values": [{"measurement": "6-mer SELEX enrichment z-score", "setting": "[1]", "result": -0.091}, {"measurement": "6-mer SELEX enrichment z-score", "setting": "[2]", "result": 0.001}, {"measurement": "6-mer SELEX enrichment z-score", "setting": "[3]", "result": -0.52}, {"measurement": "6-mer SELEX enrichment z-score", "setting": "[4]", "result": -0.504}]}, {"sequence": "GCCTAC", "values": [{"measurement": "6-mer SELEX enrichment z-score", "setting": "[1]", "result": -0.637}, {"measurement": "6-mer SELEX enrichment z-score", "setting": "[2]", "result": -0.218}, {"measurement": "6-mer SELEX enrichment z-score", "setting": "[3]", "result": -0.336}, {"measurement": "6-mer SELEX enrichment z-score", "setting": "[4]", "result": -0.668}]}, {"sequence": "GTGAGG", "values": [{"measurement": "6-mer SELEX enrichment z-score", "setting": "[1]", "result": 0.865}, {"measurement": "6-mer SELEX enrichment z-score", "setting": "[2]", "result": -0.042}, {"measurement": "6-mer SELEX enrichment z-score", "setting": "[3]", "result": 0.518}, {"measurement": "6-mer SELEX enrichment z-score", "setting": "[4]", "result": 0.795}]}, {"sequence": "CCGTTT", "values": [{"measurement": "6-mer SELEX enrichment z-score", "setting": "[1]", "result": -0.251}, {"measurement": "6-mer SELEX enrichment z-score", "setting": "[2]", "result": 0.025}, {"measurement": "6-mer SELEX enrichment z-score", "setting": "[3]", "result": -0.174}, {"measurement": "6-mer SELEX enrichment z-score", "setting": "[4]", "result": -0.246}]}, {"sequence": "ACCCCC", "values": [{"measurement": "6-mer SELEX enrichment z-score", "setting": "[1]", "result": 0.061}, {"measurement": "6-mer SELEX enrichment z-score", "setting": "[2]", "result": -1.22}, {"measurement": "6-mer SELEX enrichment z-score", "setting": "[3]", "result": -1.18}, {"measurement": "6-mer SELEX enrichment z-score", "setting": "[4]", "result": -1.26}]}, {"sequence": "GATGTC", "values": [{"measurement": "6-mer SELEX enrichment z-score", "setting": "[1]", "result": -0.112}, {"measurement": "6-mer SELEX enrichment z-score", "setting": "[2]", "result": -0.138}, {"measurement": "6-mer SELEX enrichment z-score", "setting": "[3]", "result": -0.089}, {"measurement": "6-mer SELEX enrichment z-score", "setting": "[4]", "result": -0.022}]}, {"sequence": "CGTTGT", "values": [{"measurement": "6-mer SELEX enrichment z-score", "setting": "[1]", "result": -0.481}, {"measurement": "6-mer SELEX enrichment z-score", "setting": "[2]", "result": 0.191}, {"measurement": "6-mer SELEX enrichment z-score", "setting": "[3]", "result": -0.354}, {"measurement": "6-mer SELEX enrichment z-score", "setting": "[4]", "result": -0.401}]}, {"sequence": "TCCCCG", "values": [{"measurement": "6-mer SELEX enrichment z-score", "setting": "[1]", "result": -0.322}, {"measurement": "6-mer SELEX enrichment z-score", "setting": "[2]", "result": -0.535}, {"measurement": "6-mer SELEX enrichment z-score", "setting": "[3]", "result": -0.31}, {"measurement": "6-mer SELEX enrichment z-score", "setting": "[4]", "result": -1.01}]}, {"sequence": "ACCTGA", "values": [{"measurement": "6-mer SELEX enrichment z-score", "setting": "[1]", "result": -1.98}, {"measurement": "6-mer SELEX enrichment z-score", "setting": "[2]", "result": -1.24}, {"measurement": "6-mer SELEX enrichment z-score", "setting": "[3]", "result": -1.97}, {"measurement": "6-mer SELEX enrichment z-score", "setting": "[4]", "result": -2.04}]}, {"sequence": "ACGTAC", "values": [{"measurement": "6-mer SELEX enrichment z-score", "setting": "[1]", "result": -1.23}, {"measurement": "6-mer SELEX enrichment z-score", "setting": "[2]", "result": -0.551}, {"measurement": "6-mer SELEX enrichment z-score", "setting": "[3]", "result": -0.646}, {"measurement": "6-mer SELEX enrichment z-score", "setting": "[4]", "result": -1.34}]}, {"sequence": "TGATGT", "values": [{"measurement": "6-mer SELEX enrichment z-score", "setting": "[1]", "result": 0.719}, {"measurement": "6-mer SELEX enrichment z-score", "setting": "[2]", "result": -0.083}, {"measurement": "6-mer SELEX enrichment z-score", "setting": "[3]", "result": -0.097}, {"measurement": "6-mer SELEX enrichment z-score", "setting": "[4]", "result": 0.691}]}, {"sequence": "CTCGAA", "values": [{"measurement": "6-mer SELEX enrichment z-score", "setting": "[1]", "result": -2.12}, {"measurement": "6-mer SELEX enrichment z-score", "setting": "[2]", "result": -0.543}, {"measurement": "6-mer SELEX enrichment z-score", "setting": "[3]", "result": -1.27}, {"measurement": "6-mer SELEX enrichment z-score", "setting": "[4]", "result": -1.89}]}, {"sequence": "AGGTTT", "values": [{"measurement": "6-mer SELEX enrichment z-score", "setting": "[1]", "result": 0.053}, {"measurement": "6-mer SELEX enrichment z-score", "setting": "[2]", "result": 0.321}, {"measurement": "6-mer SELEX enrichment z-score", "setting": "[3]", "result": 0.048}, {"measurement": "6-mer SELEX enrichment z-score", "setting": "[4]", "result": 0.345}]}, {"sequence": "ACTTAT", "values": [{"measurement": "6-mer SELEX enrichment z-score", "setting": "[1]", "result": 1.04}, {"measurement": "6-mer SELEX enrichment z-score", "setting": "[2]", "result": 0.165}, {"measurement": "6-mer SELEX enrichment z-score", "setting": "[3]", "result": 0.086}, {"measurement": "6-mer SELEX enrichment z-score", "setting": "[4]", "result": 1.25}]}, {"sequence": "CAGCAT", "values": [{"measurement": "6-mer SELEX enrichment z-score", "setting": "[1]", "result": 0.558}, {"measurement": "6-mer SELEX enrichment z-score", "setting": "[2]", "result": 0.774}, {"measurement": "6-mer SELEX enrichment z-score", "setting": "[3]", "result": 1.4}, {"measurement": "6-mer SELEX enrichment z-score", "setting": "[4]", "result": 0.047}]}, {"sequence": "TTGCGA", "values": [{"measurement": "6-mer SELEX enrichment z-score", "setting": "[1]", "result": -0.745}, {"measurement": "6-mer SELEX enrichment z-score", "setting": "[2]", "result": -0.122}, {"measurement": "6-mer SELEX enrichment z-score", "setting": "[3]", "result": -0.616}, {"measurement": "6-mer SELEX enrichment z-score", "setting": "[4]", "result": -0.512}]}, {"sequence": "CTCTGA", "values": [{"measurement": "6-mer SELEX enrichment z-score", "setting": "[1]", "result": -0.429}, {"measurement": "6-mer SELEX enrichment z-score", "setting": "[2]", "result": -0.221}, {"measurement": "6-mer SELEX enrichment z-score", "setting": "[3]", "result": -0.348}, {"measurement": "6-mer SELEX enrichment z-score", "setting": "[4]", "result": -0.479}]}, {"sequence": "CCCACC", "values": [{"measurement": "6-mer SELEX enrichment z-score", "setting": "[1]", "result": -1.67}, {"measurement": "6-mer SELEX enrichment z-score", "setting": "[2]", "result": -0.593}, {"measurement": "6-mer SELEX enrichment z-score", "setting": "[3]", "result": -1.46}, {"measurement": "6-mer SELEX enrichment z-score", "setting": "[4]", "result": -2.51}]}, {"sequence": "GTCCTT", "values": [{"measurement": "6-mer SELEX enrichment z-score", "setting": "[1]", "result": 0.284}, {"measurement": "6-mer SELEX enrichment z-score", "setting": "[2]", "result": 0.164}, {"measurement": "6-mer SELEX enrichment z-score", "setting": "[3]", "result": 0.013}, {"measurement": "6-mer SELEX enrichment z-score", "setting": "[4]", "result": 0.159}]}, {"sequence": "GGGTCC", "values": [{"measurement": "6-mer SELEX enrichment z-score", "setting": "[1]", "result": -0.152}, {"measurement": "6-mer SELEX enrichment z-score", "setting": "[2]", "result": 0.106}, {"measurement": "6-mer SELEX enrichment z-score", "setting": "[3]", "result": 0.297}, {"measurement": "6-mer SELEX enrichment z-score", "setting": "[4]", "result": -0.093}]}, {"sequence": "TAAGGT", "values": [{"measurement": "6-mer SELEX enrichment z-score", "setting": "[1]", "result": 0.089}, {"measurement": "6-mer SELEX enrichment z-score", "setting": "[2]", "result": 0.109}, {"measurement": "6-mer SELEX enrichment z-score", "setting": "[3]", "result": 0.013}, {"measurement": "6-mer SELEX enrichment z-score", "setting": "[4]", "result": 0.418}]}, {"sequence": "TCTTGC", "values": [{"measurement": "6-mer SELEX enrichment z-score", "setting": "[1]", "result": -0.486}, {"measurement": "6-mer SELEX enrichment z-score", "setting": "[2]", "result": 0.475}, {"measurement": "6-mer SELEX enrichment z-score", "setting": "[3]", "result": -0.119}, {"measurement": "6-mer SELEX enrichment z-score", "setting": "[4]", "result": -0.399}]}]}
